62 molecules from the supplement of paper PMC9446081 can be followed below.

Screen size: about 39,000 compounds; about 220 (0.56%) showed activity. The list shows a part of the results.
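Further: static incubation at 37 °C against the wild-type strain, values averaged over two biological replicates.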

For this assay, the system named is Escherichia coli K-12 BW25113. Kind of assay: relative growth (OD600 normalised to plate interquartile mean) (fraction); higher = less growth inhibition, active = 0.2 or less. The conditions noted are these: 50 µM; LB; incubation time: overnight (16-24 h).
Take `CCC(CC)c1nc(Nc2ccccc2)c2ccccc2n1`: the relative growth is inactive: 0.287. As for `Clc1ccc2c(c1)CCc1cccnc1C2=C1CCNCC1`, the relative growth was inactive: 0.969. As for `C[C@H]1CN([C@@H](C)CO)S(=O)(=O)c2ccc(-c3cncnc3)cc2O[C@@H]1CN(C)C(=O)c1cccc(F)c1`, the relative growth was inactive: 0.976.

Take `CCn1c(-c2nonc2N)nc2cncc(C(=O)N3CC[C@H](N)C3)c21`: the relative growth was inactive: 1.03. With `C[C@@H]1CN([C@@H](C)CO)C(=O)Cc2cc(NC(=O)Cn3cnnn3)ccc2O[C@H]1CN(C)CC1CC1`, the relative growth was inactive: 1.02. As to `C[C@@H]1CN([C@@H](C)CO)C(=O)c2cccc(NC(=O)Nc3ccc(F)cc3)c2O[C@@H]1CN(C)S(=O)(=O)c1cn(C)cn1`, the relative growth is inactive: 0.978. Consider `C[C@H](CO)N1C[C@H](C)[C@H](CN(C)Cc2ccc(Cl)c(Cl)c2)Oc2c(NC(=O)Nc3ccc(C(F)(F)F)cc3)cccc2C1=O`, for which the relative growth was inactive: 0.997. The value for `C[C@@H]1CCCCO[C@H](CN(C)C(=O)c2ccccc2)[C@H](C)CN([C@@H](C)CO)C(=O)c2cc(NC(=O)Nc3ccc(C(F)(F)F)cc3)ccc2O1` was inactive: 0.964. Regarding `O=C(Nc1ccc(S(=O)(=O)OCC(F)(F)C(F)(F)C(F)(F)C(F)F)cc1)NC1(C(F)(F)F)Oc2ccccc2O1`, the relative growth is inactive: 1.03. For `C[C@@H]1CN([C@@H](C)CO)C(=O)c2cc(C#CC3CCCCC3)cnc2O[C@H]1CN(C)C(=O)Cc1ccccn1`, the relative growth is inactive: 0.979. As for `COc1ccc(CN(C)C[C@@H]2OCCCC[C@H](C)Oc3ccc(NC(=O)C4CCCCC4)cc3C(=O)N([C@H](C)CO)C[C@H]2C)cc1`, the relative growth was inactive: 0.937.

Take `NCc1cc(Oc2cccc(C(=O)N3C[C@@H](O)[C@H](F)C3)c2)nc(C(F)(F)F)c1`: the relative growth was inactive: 0.98. The value for `C[C@@H]1CCCCO[C@@H](CN(C)CC2CCCCC2)[C@@H](C)CN([C@@H](C)CO)C(=O)c2cc(NC(=O)Nc3ccc4c(c3)OCO4)ccc2O1` was inactive: 0.991; that for `COc1ccc2c3c(n(c2c1)C)[C@@H](CO)N(C[C@]13CCN(CC1)C(=O)c1cccnc1)C(=O)c1cccnc1` was inactive: 0.996. On to `COc1ccc(NC(=O)Nc2ccc3c(c2)C(=O)N([C@@H](C)CO)C[C@@H](C)[C@H](CN(C)C(=O)Nc2ccccc2)OCCCC[C@@H](C)O3)cc1`, for which the relative growth was inactive: 1.05. For the molecule `Cc1ccc(S(=O)(=O)N(C)C[C@@H]2Oc3c(NC(=O)C4CC4)cccc3C(=O)N([C@H](C)CO)C[C@@H]2C)cc1`, the relative growth is inactive: 1.01. As to `C[C@@H]1CCCCO[C@@H](CN(C)C(=O)NC2CCCCC2)[C@@H](C)CN([C@@H](C)CO)C(=O)c2cc(NC(=O)NC3CCCCC3)ccc2O1`, the relative growth was inactive: 1.01.

As for `C[C@H](CO)N1C[C@H](C)[C@H](CN(C)CC2CCCCC2)Oc2c(NS(=O)(=O)c3cn(C)cn3)cccc2C1=O`, the relative growth was inactive: 1.01. Consider `O=C(CCC(=O)N1CCOCC1)Nc1c(F)c(F)nc(N2CCOCC2)c1F`, for which the relative growth is inactive: 0.958. Consider `Cc1noc(C)c1S(=O)(=O)N(C)C[C@@H]1OCCCC[C@@H](C)Oc2ccc(NS(C)(=O)=O)cc2C(=O)N([C@H](C)CO)C[C@H]1C`, for which the relative growth was inactive: 1.05. Regarding `O=C(C[C@H]1CC[C@@H]2[C@H](COC[C@@H](O)CN2S(=O)(=O)c2ccccc2F)O1)NCc1ccccc1F`, the relative growth was inactive: 0.996. Turning to `C[C@H]1CN([C@@H](C)CO)C(=O)Cc2cc(NC(=O)CCC(F)(F)F)ccc2O[C@@H]1CN(C)S(=O)(=O)c1cn(C)cn1`, the relative growth was inactive: 0.997. For `Cc1noc(C)c1NC(=O)Nc1ccc2c(c1)CC(=O)N([C@@H](C)CO)C[C@H](C)[C@@H](CN(C)S(=O)(=O)c1ccccc1)O2`, the relative growth is inactive: 0.972. In the case of `COc1cccc(NC(=O)N2C[C@@H](O)COC[C@@H]3O[C@H](CC(=O)NCc4ccccc4F)CC[C@H]32)c1`, the relative growth is inactive: 0.994.

In the case of `C[C@H](CO)N1C[C@H](C)[C@H](CN(C)S(=O)(=O)c2ccccc2)Oc2ncc(C#Cc3cccc(F)c3)cc2C1=O`, the relative growth is inactive: 0.988. `CO[C@H]1O[C@H](COC(=O)NCCCCCC(=O)NO)[C@@H](OC(=O)Nc2ccccc2)[C@@H]2OC(=O)[C@H](Cc3cccc(Br)c3)C/C=C/C[C@@H](Cc3cccc(Br)c3)C(=O)O[C@@H]12`: the relative growth is inactive: 1.01. With `Cc1noc(C)c1NC(=O)Nc1ccc2c(c1)CC(=O)N([C@H](C)CO)C[C@@H](C)[C@H](CN(C)S(=O)(=O)c1cn(C)cn1)O2`, the relative growth was inactive: 0.951. On to `Cc1noc(C)c1S(=O)(=O)Nc1ccc2c(c1)C(=O)N([C@@H](C)CO)C[C@@H](C)[C@H](CN(C)Cc1ccc(C(=O)O)cc1)O2`, for which the relative growth was inactive: 0.988. As to `CN(C)CCOC(c1ccccc1)c1ccccc1.Cn1c(=O)c2[nH]c(Cl)nc2n(C)c1=O`, the relative growth is active: 0.0491.

For the molecule `CC=Cc1ccc2n(c1=O)C[C@@H]1[C@@H](CO)[C@H](C(=O)NC3CCC3)[C@H]2N1S(=O)(=O)c1cn(C)cn1`, the relative growth was inactive: 1.01. For the molecule `CC(=Cc1ccccc1)C=C1SC(=S)N(CC(=O)O)C1=O`, the relative growth is inactive: 1.06. As to `C[C@H](CO)N1C[C@H](C)[C@@H](CN(C)Cc2ccc(F)cc2)Oc2cc(Br)ccc2S1(=O)=O`, the relative growth is inactive: 0.938. For the molecule `Nc1cc(N)nc(SCCC(=O)O)n1`, the relative growth is inactive: 1.02.

Turning to `O=C(O)C(O)C(O)(Cc1ccc(O)cc1)C(=O)O` (configuration not stated), the relative growth is inactive: 1.07. Consider `NC(=O)NCc1ccccn1`, for which the relative growth is inactive: 1.

With `C[C@@H]1CN([C@H](C)CO)C(=O)c2cccc(NS(=O)(=O)c3cn(C)cn3)c2O[C@H]1CN(C)Cc1ccncc1`, the relative growth was inactive: 0.97. For the molecule `C[C@@H]1CCCCO[C@@H](CN(C)S(=O)(=O)c2ccc(F)cc2)[C@@H](C)CN([C@H](C)CO)C(=O)c2cc(NS(C)(=O)=O)ccc2O1`, the relative growth is inactive: 1.02. In the case of `C[C@H](CO)N1C[C@H](C)[C@@H](CN(C)Cc2ccc(C(F)(F)F)cc2)Oc2ccc(NC(=O)Cc3ccccc3)cc2CC1=O` it was inactive: 1.05.

On to `CC(C)NC(=O)N(C)C[C@H]1Oc2ccc(NS(=O)(=O)c3cccs3)cc2CC(=O)N([C@@H](C)CO)C[C@@H]1C`, for which the relative growth is inactive: 0.992. As to `COc1cccc(-c2ccc3c(c2)O[C@H](CN(C)C(=O)C2CCC2)[C@H](C)CN([C@H](C)CO)S3(=O)=O)c1`, the relative growth was inactive: 1.03. With `COc1ccc(NC(=O)N(C)C[C@H]2OCc3cnnn3CCCC(=O)N([C@@H](C)CO)C[C@H]2C)c(OC)c1`, the relative growth is inactive: 1.02. On to `Cc1ccc(S(=O)(=O)Nc2ccc3c(c2)C(=O)N([C@@H](C)CO)C[C@H](C)[C@H](CN(C)Cc2ccc(C(F)(F)F)cc2)OCCCC[C@@H](C)O3)cc1`, for which the relative growth is inactive: 1.02. As to `CC(C)CN1C[C@H](C(=O)O)CC1=O`, the relative growth was inactive: 0.988.

With `COc1ccc(CN(C)C[C@H]2Oc3ccc(NS(C)(=O)=O)cc3CC(=O)N([C@H](C)CO)C[C@@H]2C)cc1`, the relative growth was inactive: 0.96.

Take `O=C(C[C@@H]1CC[C@@H]2[C@H](COC[C@H](O)CN2C(=O)Nc2ccc(Cl)cc2)O1)NCCc1ccncc1`: the relative growth was inactive: 0.946. The value for `C[C@H](CO)N1C[C@H](C)[C@H](CN(C)S(=O)(=O)c2cn(C)cn2)Oc2ncc(-c3ccc(F)cc3)cc2C1=O` was inactive: 1.02; that for `O=C1NCCC[C@@H]1C(=O)N1CCCCC1` was inactive: 0.98; that for `CC(C)NC(=O)Nc1cccc2c1O[C@H](CN(C)Cc1ccc(C(=O)O)cc1)[C@H](C)CN([C@@H](C)CO)C2=O` was inactive: 0.996. Consider `Cc1ccc(S(=O)(=O)N(C)C[C@@H]2Oc3ccc(NC(=O)C4CC4)cc3C(=O)N([C@@H](C)CO)C[C@@H]2C)cc1`, for which the relative growth was inactive: 1.

Turning to `NNC(=O)CNc1ccc2c(c1)OCO2`, the relative growth was inactive: 1.03. In the case of `CC(C)CC[C@@H](O)[C@H]1C[C@@H](CO)OC1=O`, the relative growth is inactive: 0.995. In the case of `CCCCc1cn(C[C@@H]2CCCN2C(=O)N[C@H](CO)CCc2oc(C(C)=O)c(C(=O)OC)c2C(=O)OC)nn1` it was inactive: 1. In the case of `C[C@H]1CCCCO[C@@H](CN(C)C(=O)Nc2cccc3ccccc23)[C@@H](C)CN([C@@H](C)CO)C(=O)c2cc(NS(=O)(=O)c3ccc(Cl)cc3)ccc2O1` it was inactive: 1.02; in that of `C[C@@H]1CCCCO[C@@H](CN(C)C(=O)C2CCCCC2)[C@H](C)CN([C@@H](C)CO)C(=O)c2cc(NC(=O)Nc3ccc(F)cc3)ccc2O1`, inactive: 1.01.

For the molecule `C[C@@H]1CCCCO[C@@H](CN(C)C(=O)C2CCCCC2)[C@@H](C)CN([C@@H](C)CO)C(=O)c2cc(NC(=O)c3ccccc3)ccc2O1`, the relative growth is inactive: 1.03. Turning to `O=S(=O)(Cc1ccccc1)Nc1ccc(-c2ccc3c(cnn3-c3ccc(F)cc3)c2)c(C(F)(F)F)c1`, the relative growth was inactive: 0.921. The value for `C[C@H](CO)N1C[C@H](C)[C@H](CN(C)S(C)(=O)=O)Oc2ccc(NC(=O)CCN3CCOCC3)cc2C1=O` was inactive: 1.01; that for `COc1ccc(NC(=O)N(C)C[C@@H]2Oc3ccc(NC(=O)C4CC4)cc3CC(=O)N([C@@H](C)CO)C[C@@H]2C)cc1` was inactive: 0.998; that for `C[C@H]1CN([C@@H](C)CO)C(=O)c2c(c3ccccc3n2C)-c2ccccc2CO[C@H]1CN(C)S(=O)(=O)c1ccc(Cl)cc1` was inactive: 1.01. Turning to `COc1cc(N2C[C@@H]3C[C@H](C(=O)NCCN(C)C)N(C)[C@@H]3C2)ncn1`, the relative growth was inactive: 0.997.

`COc1ccc(NC(=O)N(C)C[C@@H]2OCCCC[C@@H](C)Oc3ccc(NC(=O)c4ccccc4)cc3C(=O)N([C@H](C)CO)C[C@H]2C)cc1`: the relative growth was inactive: 0.893. As for `C[C@@H]1CCCCO[C@@H](CN(C)S(=O)(=O)c2ccccc2)[C@H](C)CN([C@@H](C)CO)C(=O)c2cc(NC(=O)C3CCCCC3)ccc2O1`, the relative growth is inactive: 1.01.
